Assay results reported in the supplement of paper PMC10126150.
Sequences with one replicate were seen in a single cluster, so their values are uncertain.

Tested on: ATP
Assay: switch fluorescence ratio, 500 uM ATP over buffer (Cy3 cluster intensity, sum of 5 cycles each) (fold (ratio)); higher = stronger signal-on switching upon ATP binding; sequences stand for … in TCGTCGGCAGCGTCAGATGTGTATAAGAGACAGTTTTTTTTTTTTTTTTTTTTTTTTT…TC
Conditions: aptamer strand: ATP DNA aptamer (quencher-CACCTGGGGGAGTATTGCGGAGGAAGG + anchor), 100 nM annealed; ATP concentration: 500 uM; one replicate
In short: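 Values give the fluorescence ratio for each switch-domain sequence, averaged from per-cluster ratios of summed target-cycle to summed buffer-cycle Cy3 intensity. The Cy3-labelled switching-strand clusters sat on a modified Illumina MiSeq flow-cell, were annealed to 100 nM quencher-labelled ATP aptamer, and were imaged in selection buffer, then after 15 min with 500 uM ATP at 22 °C. Five cycles ran with NaOH stripping and re-annealing between them, and clusters outside 100-1000 RFU were excluded.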
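Note: ATP exposure 15 min at 22 °C before imaging.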

| Sequence | switch fluorescence ratio |
| --- | --- |
| GGGTATAAGT | 0.979 |
| GGGTATCCGC | 1.08 |
| GGGTATGAGA | 1.01 |
| GGGTATGAGT | 0.981 |
| GGGTCACAGC | 1.01 |
| GGGTCCGGAG | 0.936 |
| GGGTCCTA | 0.993 |
| GGGTCTCCCG | 1.06 |
| GGGTCTGACA | 0.988 |
| GGGTCTTAAG | 0.98 |
| GGGTCTTACC | 0.98 |
| GGGTCTTCAA | 1.02 |
| GGGTGACTTC | 0.947 |
| GGGTGATGG | 0.983 |
| GGGTGCGCTA | 0.972 |
| GGGTGCGGGA | 0.967 |
| GGGTGCTTAA | 0.982 |
| GGGTGCTTCG | 1.08 |
| GGGTGGACGA | 0.952 |
| GGGTGGCGG | 1 |
| GGGTGGGAAG | 1.01 |
| GGGTGGGTTC | 0.97 |
| GGGTGTAACA | 0.995 |
| GGGTGTAAGA | 1.02 |
| GGGTGTATAC | 1.03 |
| GGGTTAAC | 0.955 |

| Sequence | switch fluorescence ratio |
| --- | --- |
| GGGTTCCATA | 1.01 |
| GGGTTCCTAA | 1.04 |
| GGGTTCTACA | 1.02 |
| GGGTTCTACT | 1.01 |
| GGGTTCTCAC | 1.05 |
| GGGTTCTTCC | 1.22 |
| GGGTTG | 0.99 |
| GGGTTGATAA | 0.99 |
| GGGTTGGAGA | 0.996 |
| GGGTTTAAGA | 1.02 |
| GGGTTTCACC | 1.02 |
| GGGTTTGGTA | 0.994 |
| GGTAAAATAG | 1.01 |
| GGTAACGCAG | 1.03 |
| GGTAAGGATT | 0.965 |
| GGTAAGGTGC | 1.37 |
| GGTAAGTAAG | 1.03 |
| GGTACAGGCT | 1.01 |
| GGTACGTGGT | 0.994 |
| GGTACTAGGT | 1.02 |
| GGTACTCGCT | 0.985 |
| GGTAGAACAT | 0.984 |
| GGTAGAGTGT | 1.01 |
| GGTAGCGATG | 1.07 |
| GGTAGCGTCG | 0.958 |
| GGTAGCTCAC | 1.08 |

| Sequence | switch fluorescence ratio |
| --- | --- |
| GGTAGCTCCA | 1.02 |
| GGTAGGCACG | 1.06 |
| GGTAGGCGGT | 0.99 |
| GGTAGTCT | 0.906 |
| GGTATAAGTA | 0.987 |
| GGTATAAGTT | 0.982 |
| GGTATACCGA | 0.979 |
| GGTATAGGAG | 1.01 |
| GGTATCTATT | 0.932 |
| GGTATCTCAC | 0.995 |
| GGTATTGAA | 0.988 |
| GGTCAAGGGT | 0.99 |
| GGTCAATTTA | 1.02 |
| GGTCACCGC | 0.989 |
| GGTCATATTC | 1.02 |
| GGTCATGGAG | 1 |
| GGTCATGGG | 0.957 |
| GGTCATTAGG | 0.989 |
| GGTCCACTCA | 0.984 |
| GGTCCATCGC | 1.07 |
| GGTCCCACGT | 0.978 |
| GGTCCCCTCT | 1.02 |
| GGTCCGCCTC | 1.18 |
| GGTCCGCGAG | 2.13 |
| GGTCCGCGCT | 1.14 |
| GGTCCGTAAG | 1.09 |

| Sequence | switch fluorescence ratio |
| --- | --- |
| GGTCCGTACT | 1.05 |
| GGTCCTATAG | 0.98 |
| GGTCGAATCA | 0.998 |
| GGTCGACCAT | 0.969 |
| GGTCGAGTTA | 1.02 |
| GGTCGATTTA | 1 |
| GGTCGGACAA | 0.986 |
| GGTCGGAGG | 0.956 |
| GGTCGGGAAA | 1 |
| GGTCGGGAGC | 1.03 |
| GGTCGGGATG | 0.971 |
| GGTCGGTTTC | 0.967 |
| GGTCGTCTGG | 0.969 |
| GGTCTAACAA | 0.989 |
| GGTCTCTCGA | 0.991 |
| GGTCTCTTGT | 0.953 |
| GGTCTGAAGG | 0.994 |
| GGTCTGAGGC | 1.01 |
| GGTCTGCAGG | 0.983 |
| GGTCTGTTCG | 0.966 |
| GGTCTTATTC | 0.96 |
| GGTCTTGTAA | 0.967 |
| GGTGACTAAT | 0.945 |
| GGTGAGATTT | 1.03 |
| GGTGAGCCA | 0.978 |
| GGTGAGCGCA | 0.988 |

| Sequence | switch fluorescence ratio |
| --- | --- |
| GGTGAGGATC | 0.976 |
| GGTGAGTTTT | 0.996 |
| GGTGATATTG | 1.04 |
| GGTGATCCCA | 0.982 |
| GGTGATCCGT | 0.962 |
| GGTGATCGTG | 0.987 |
| GGTGATCTGG | 0.958 |
| GGTGATTCAG | 1.01 |
| GGTGCAAGGT | 1.06 |
| GGTGCACGCA | 1.04 |
| GGTGCATGTT | 0.964 |
| GGTGCATTAA | 1.11 |
| GGTGCCCCAG | 1.18 |
| GGTGCCGGCA | 1 |
| GGTGCGAACA | 0.991 |
| GGTGCTGGAT | 1.09 |
| GGTGGAATTG | 1.08 |
| GGTGGACT | 1.03 |
| GGTGGATTTT | 1.03 |
| GGTGGCGA | 1.03 |
| GGTGGTAC | 1 |
| GGTGGTCTTG | 1.02 |
| GGTGGTGGTT | 1.03 |
| GGTGTAAACA | 1.03 |
| GGTGTAATGC | 1.2 |
| GGTGTAGGAA | 1.03 |

| Sequence | switch fluorescence ratio |
| --- | --- |
| GGTGTATCAG | 1.01 |
| GGTGTATGGA | 0.997 |
| GGTGTCCTAG | 0.995 |
| GGTGTCGCAA | 1.04 |
| GGTGTCGGAA | 0.998 |
| GGTGTGAACC | 0.958 |
| GGTGTGCCAC | 0.98 |
| GGTGTGCGTA | 1.07 |
| GGTGTGCTCA | 0.929 |
| GGTGTTAAGT | 0.987 |
| GGTGTTCGAT | 0.967 |
| GGTTAATCTG | 1.03 |
| GGTTACCCGG | 1 |
| GGTTACTGCA | 1.03 |
| GGTTAGACGT | 0.986 |
| GGTTAGAGT | 0.959 |
| GGTTAGTTCC | 1.09 |
| GGTTATACCC | 0.99 |
| GGTTATAGAG | 0.986 |
| GGTTATCTGC | 1.05 |
| GGTTATTACT | 1.02 |
| GGTTCAATGT | 0.997 |
| GGTTCAATTC | 1 |
| GGTTCACAGC | 0.943 |
| GGTTCAGAGT | 1.01 |
| GGTTCAGTAC | 1.17 |

| Sequence | switch fluorescence ratio |
| --- | --- |
| GGTTCCAAG | 1.01 |
| GGTTCCTAAT | 0.992 |
| GGTTCCTCAG | 1.19 |
| GGTTCGACCG | 1.02 |
| GGTTCGCAGG | 1.02 |
| GGTTCTCAGA | 1.03 |
| GGTTCTCTCT | 1.02 |
| GGTTGAATCG | 0.982 |
| GGTTGATCAG | 0.993 |
| GGTTGGAA | 0.996 |
| GGTTGGTCGT | 1 |
| GGTTGTTGCG | 0.97 |
| GGTTTACTCC | 1.04 |
| GGTTTACTGG | 0.972 |
| GGTTTAGACC | 0.98 |
| GGTTTAGCTT | 1 |
| GGTTTAGTAT | 0.932 |
| GGTTTGAGAC | 0.996 |
| GGTTTTACT | 1.01 |
| GGTTTTCGTA | 1.01 |
| GGTTTTGTAC | 0.999 |
| GTAAACAACT | 1.06 |
| GTAAAGGAGT | 0.963 |
| GTAAATAGCG | 1.04 |
| GTAAATCGCG | 0.981 |
| GTAAATTGG | 0.981 |

| Sequence | switch fluorescence ratio |
| --- | --- |
| GTAACACCCT | 1.21 |
| GTAACAGGGG | 1.14 |
| GTAACCAA | 1.09 |
| GTAACCGCTG | 1.05 |
| GTAACGCATT | 0.994 |
| GTAACTTATG | 0.973 |
| GTAAGAACTA | 1.02 |
| GTAAGAAGAC | 0.937 |
| GTAAGACAAG | 1.01 |
| GTAAGACCAA | 0.995 |
| GTAAGACGTA | 1.07 |
| GTAAGATTCG | 0.963 |
| GTAAGCCGCG | 1.06 |
| GTAAGCGTTC | 0.999 |
| GTAAGCTTGT | 1.02 |
| GTAAGGAGTG | 0.989 |
| GTAAGGTT | 0.993 |
| GTAAGGTTCG | 0.951 |
| GTAAGTAGGC | 1.1 |
